# “And” between values parts separate entries of the source, which are not always exact repeats. Identical values can stand only once. Counter-ions that a name gives are not always drawn. Out of some 1,800 compounds screened, about 50 (3%) showed activity. This is one part of the list.
# Tested on: mouse p16Ink4a+/- lung fibroblasts (INKBRITE, bleomycin-injured)
# Assay: percentage of GFP+ (p16Ink4a+) fibroblasts among all cells in well; higher = less depletion of p16Ink4a+ cells, active = 20 or less
# Details: 1 µM; 3 days
# 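Also: fibroblasts sorted 14 days after bleomycin, GFP+ and GFP− mixed 1:1 in 384-well plates (GFP− as in-well control), imaged after Hoechst and NucView530 staining, reference wells lacked compound.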
row,Structure (SMILES),percentage of GFP+
1,CC(C)(Oc1ccc(CCNC(=O)c2ccc(Cl)cc2)cc1)C(=O)O [Bezafibrate],inactive: 39.1%
2,CN(Cc1cnc2nc(N)nc(N)c2n1)c1ccc(C(=O)N[C@@H](CCC(=O)O)C(=O)O)cc1 [Methotrexate],inactive: 38.4%
3,O=C(NNc1nc2cc(F)ccc2n2cccc12)c1cnccn1,inactive: 30.3%
4,CC/C(=C(\c1ccccc1)c1ccc(OCCN(C)C)cc1)c1ccccc1 [Tamoxifen],inactive: 34.9%
5,CC(C)NC[C@H](O)COc1ccc(CCOCC2CC2)cc1 [Levobetaxolol],inactive: 48%
6,COC(=O)N1CCN(Cc2cccc(NC(=O)Nc3ccc(C)nc3)c2F)CC1 [Omecamtiv mecarbil],inactive: 45.9%
7,O=C(O)CCCCC(CCSCc1ccccc1)SCc1ccccc1 (configuration not stated),inactive: 44.3%
8,CN(C)C/C=C/C(=O)Nc1cc2c(Nc3ccc(F)c(Cl)c3)ncnc2cc1O[C@H]1CCOC1 [Afatinib],inactive: 43.9%
9,CCCc1nc(C(C)(C)O)c(C(=O)OCc2oc(=O)oc2C)n1Cc1ccc(-c2ccccc2-c2nn[nH]n2)cc1 [Olmesartan Medoxomil],inactive: 38.2%
10,CCCC(C)NC(=O)c1ccc(Cl)c(Cl)c1 (configuration not stated),inactive: 45.8%
11,C[C@@H]1C(=O)O[C@H]2[C@@H](O)C34[C@H]5C[C@@H](C(C)(C)C)C36[C@@H](OC(=O)[C@@H]6O)O[C@@]4(C(=O)O5)[C@@]12O (some centres not stated) [Ginkgolide B],inactive: 48.5%
12,CN1CCC(NC(=O)c2cc(-c3c(O)cc(O)cc3Oc3ccc([N+](=O)[O-])cc3)on2)CC1,inactive: 35.6%
13,Cc1ccc(C(=O)Nc2ccc(CN3CCN(C)CC3)c(C(F)(F)F)c2)cc1C#Cc1cnc2[nH]ncc2c1 [Olverembatinib],active: 17.2%
14,OC[C@@H](O)[C@@H](O)CO [_x000D_  Meso-Erythritol],inactive: 54.8%
15,Cc1cc(NC(=O)Nc2ccc(N(C)C)cc2)c2cc(F)cc(F)c2n1,inactive: 37.4%
16,CCC(=O)O[C@]1(C(=O)SCF)[C@H](C)C[C@H]2[C@@H]3C[C@H](F)C4=CC(=O)C=C[C@]4(C)[C@@]3(F)[C@@H](O)C[C@@]21C [Fluticasone propionate],inactive: 38.7%
17,CCOC(=O)c1ccc(N2NC(=O)/C(=C/c3ccc([N+](=O)[O-])o3)C2=O)cc1,inactive: 45.9%
18,O=C(/C=C/c1ccc(O)c(O)c1)O[C@@H]1C[C@](O)(C(=O)O)C[C@@H](O)[C@H]1O [Chlorogenic Acid],inactive: 36.6%
19,CC[C@H]1OC(=O)[C@H](C)[C@@H](O[C@H]2C[C@@](C)(OC)[C@@H](O)[C@H](C)O2)[C@H](C)[C@@H](O[C@@H]2O[C@H](C)C[C@H](N(C)C)[C@H]2O)[C@](C)(O)C[C@@H](C)/C(=N/OCOCCOC)[C@H](C)[C@@H](O)[C@]1(C)O [Roxithromycin],inactive: 41.7%
20,CN1C[C@@H]2c3ccccc3Oc3ccc(Cl)cc3[C@H]2C1 [Asenapine],inactive: 49.5%
21,O=C1C(O)=C([C@H]2CC[C@H](c3ccc(Cl)cc3)CC2)C(=O)c2ccccc21 [Atovaquone],inactive: 47.1%
22,"COc1ccccc1OCC(O)CN1CCN(CC(=O)Nc2c(C)cccc2C)CC1 (configuration not stated) [Ranolazine, Ranolazine Dihydrochloride]",inactive: 42.9% and inactive: 39.3%
23,NC(=O)Nc1sc(-c2ccc(F)cc2)cc1C(N)=O,inactive: 39.7%

row,Structure (SMILES),percentage of GFP+
1,O=c1[nH]c(=O)n([C@H]2C[C@H](O)[C@@H](CO)O2)cc1I [Idoxuridine],inactive: 41.9%
2,O=C(NC1CCOCC1)c1ccc(-c2cc(-c3c[nH]nc3-c3ccccn3)ccn2)cc1,inactive: 40.4%
3,CNCC[C@H](Oc1cccc2ccccc12)c1cccs1 [Duloxetine],inactive: 33.8%
4,CC(=O)c1cc([N+](=O)[O-])c(Sc2ccc(F)cc2F)s1,inactive: 34.9%
5,CCOC(=O)CCNc1cc(N2CCc3ccccc3CC2)nc(-c2ccccn2)n1,inactive: 47.7%
6,COCCO/C(O)=C1\C(C)=NC(C)=C(C(=O)OC(C)C)C1c1cccc([N+](=O)[O-])c1 (configuration not stated) [Nimodipine],inactive: 42.9%
7,O=C1c2cccc(O)c2C(=O)c2c(O)cc(CO)cc21 [Aloe-emodin],inactive: 38%
8,CC(C)C[C@H](NC(=O)CNC(=O)c1cc(Cl)ccc1Cl)B(O)O [Ixazomib],active: 4.65%
9,OC(CCN1CCCCC1)(c1ccccc1)C1CC2C=CC1C2 (configuration not stated) [Biperiden],inactive: 40.6%
10,CC1(C)S[C@H]2[C@@H](NC(=O)[C@@H](NC(=O)N3CCN(S(C)(=O)=O)C3=O)c3ccccc3)C(=O)N2[C@@H]1C(=O)O [Mezlocillin Sodium],inactive: 47%
11,CNC[C@H](O)c1cccc(O)c1 [Phenylephrine],inactive: 35.5%
12,COc1ccc2cc(CCC(C)=O)ccc2c1 [Nabumetone],inactive: 45.4%
13,CN1CCC[C@@H]1Cc1c[nH]c2ccc(CCS(=O)(=O)c3ccccc3)cc12 [Eletriptan],inactive: 52.5%
14,O=c1[nH]c(=O)n([C@H]2C[C@H](O)[C@@H](CO)O2)cc1F [Floxuridine],inactive: 36.8%
15,O=C(NNc1ccccc1)c1ccncc1 [PluriSIn #1],inactive: 54.6%
16,COc1cc2ncnc(Nc3ccc(Cl)cc3F)c2cc1OC,inactive: 51.5%
17,O=C(NCc1ccccc1)c1csc(Nc2ccncn2)n1 [Thiazovivin],inactive: 51.8%
18,CN/C(=C/[N+](=O)[O-])NCCSCc1csc(CN(C)C)n1 [Nizatidine],inactive: 41.5%
19,CCN1CCCC1CNC(=O)c1cc(S(=O)(=O)CC)c(N)cc1OC (configuration not stated) [Amisulpride],inactive: 45.9%
20,Nc1nc(F)nc2c1ncn2[C@@H]1O[C@H](COP(=O)(O)O)[C@@H](O)[C@@H]1O [Fludarabine Phosphate],inactive: 36.6%
21,COc1cc(C=O)ccc1O [Vanillin],inactive: 37.7%
22,CN1CCN(C2CCN(C(=O)Nc3cc(Oc4ccc(NC(=O)C5(C(=O)Nc6ccc(F)cc6)CC5)c(F)c4)ccn3)CC2)CC1 [Golvatinib],inactive: 39.3%
23,C[C@@H]1O[C@@H](OC[C@H]2O[C@@H](Oc3c(-c4ccc(OCCO)c(OCCO)c4)oc4cc(OCCO)cc(O)c4c3=O)[C@H](O)[C@@H](O)[C@@H]2O)[C@H](O)[C@H](O)[C@H]1O [Troxerutin],inactive: 40.2%

row,Structure (SMILES),percentage of GFP+
1,C[C@@H](NCCCc1cccc(C(F)(F)F)c1)c1cccc2ccccc12 [Cinacalcet],inactive: 33.2%
2,CC(=O)N[C@H]1[C@H]([C@H](O)[C@H](O)CO)OC(C(=O)O)=C[C@@H]1NC(=N)N [Zanamivir],inactive: 53.1%
3,Cc1ccc(CNc2ncnc3ccc(-c4ccc(CO)o4)cc23)o1,inactive: 50.9%
4,[NH2][Pt]([NH2])([Cl])[Cl] [Cisplatin],inactive: 42.1%
5,CC1(C)O[C@@H]2C[C@H]3[C@@H]4CCC5=CC(=O)C=C[C@]5(C)[C@@]4(F)[C@@H](O)C[C@]3(C)[C@]2(C(=O)CO)O1 [Triamcinolone Acetonide],inactive: 34.4%
6,COc1cc2nccc(Oc3ccc(NC(=O)Nc4ccc(F)cc4F)c(F)c3)c2cc1OC,inactive: 45.2%
7,CC[C@H]1OC(=O)[C@H](C)[C@@H](O[C@H]2C[C@@](C)(OC)[C@@H](O)[C@H](C)O2)[C@H](C)[C@@H](O[C@H]2O[C@H](C)C[C@H](N(C)C)[C@H]2O)[C@](C)(O)C[C@@H](C)CN(C)[C@H](C)[C@@H](O)[C@]1(C)O [Azithromycin],inactive: 49.7%
8,O=C1C(O)=C(O)O[C@@H]1[C@@H](O)CO [Vitamin C],inactive: 41.1%
9,COc1cc2c(cc1OC)-c1cc3ccc(OC)c(OC)c3c[n+]1CC2 [Palmatine],inactive: 45.3%
10,NC(=O)N1CCC(CC(=O)N2CCC([C@H]3c4ncc(Br)cc4CCc4cc(Cl)cc(Br)c43)CC2)CC1 [Lonafarnib],inactive: 47.5%
11,CC(C[N+](C)(C)C)OC(N)=O (configuration not stated) [Bethanechol],inactive: 43.5%
12,CC1(C)CNc2cc(NC(=O)c3cccnc3NCc3ccncc3)ccc21 [Motesanib Diphosphate],inactive: 25.1%
13,O=S(=O)(O)Oc1ccc(C(c2ccc(OS(=O)(=O)O)cc2)c2ccccn2)cc1 [Picosulfuric acid],inactive: 48.4%
14,OC[C@H]1O[C@@H](OCCc2ccc(O)cc2)[C@H](O)[C@@H](O)[C@@H]1O [Salidroside],inactive: 36.3%
15,COC1=C2C[C@@H](C)C[C@H](OC)[C@H](O)[C@@H](C)/C=C(\C)[C@H](OC(N)=O)[C@@H](OC)/C=C/C=C(\C)C(=O)/N=C(/C=C1O)C2=O [Geldanamycin],active: 13.5%
16,Cc1cccc(Nc2cc(Cl)nc(SCC(=O)O)n2)c1C [Pirinixic Acid],inactive: 41%
17,CCc1cncnc1N1CCN(Cc2nc3cc(C(F)(F)F)ccc3[nH]2)CC1,inactive: 45.3%
18,CC1=C(C(=O)O)N2C(=O)[C@@H](NC(=O)[C@H](N)c3ccccc3)[C@H]2SC1 [Cephalexin],inactive: 42.4%
19,Nc1ccc(-c2ccc3ncc4ccc(=O)n(-c5cccc(C(F)(F)F)c5)c4c3c2)cn1 [Torin 2],inactive: 45.7%
20,C=CC(=O)Nc1cccc(Oc2nc(Nc3ccc(N4CCN(C)CC4)cc3)ncc2Cl)c1,inactive: 48.2%
21,OC[C@@H](O)[C@@H](O)[C@H](O)[C@@H](O)CO [Sorbitol],inactive: 35.5%

# Source: the supplement of paper PMC11060735
